This note sets out measurements from article PMC9911399, “Two distinct binding modes provide the RNA-binding protein RbFox with extraordinary sequence specificity”.

Substitutions are numbered along the chain they refer to; changes in the protein carry UniProt numbers. This is one part of the list.

The labels stand for the following.
T1: RBFOX1 RRM RbFoxmut (Fox-RRM*) (Homo sapiens, UniProt Q9NWB1 109-208, R118D;E147R;N151S;E152T)
T1 sequence: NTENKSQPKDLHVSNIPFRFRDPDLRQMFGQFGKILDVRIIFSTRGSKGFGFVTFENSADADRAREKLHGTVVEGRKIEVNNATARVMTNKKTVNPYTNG

B1: UGUGUGC (DNA:RNA)
RNA: GGGAGACCGGAAUUCAGAUUGUCCUGUGUGCUUAAAUCCCGUCGUAGCCACCA
DNA 1: CAATCTGAATTCCGGTCTCCC
DNA 2: TGGTGGCTACGACGGGATT
B2: AGCGAAC (DNA:RNA)
RNA: B1 RNA with U25A, U27C, U29A, G30A
DNA 1: CAATCTGAATTCCGGTCTCCC
DNA 2: TGGTGGCTACGACGGGATT
B3: CGUAGUC (DNA:RNA)
RNA: B1 RNA with U25C, G28A, U29G, G30U
DNA 1: CAATCTGAATTCCGGTCTCCC
DNA 2: TGGTGGCTACGACGGGATT
B4: CAAUCGC (DNA:RNA)
RNA: B1 RNA with U25C, G26A, U27A, G28U, U29C
DNA 1: CAATCTGAATTCCGGTCTCCC
DNA 2: TGGTGGCTACGACGGGATT
B5: GUGAGGU (DNA:RNA)
RNA: B1 RNA with U25G, G26U, U27G, G28A, U29G, C31U
DNA 1: CAATCTGAATTCCGGTCTCCC
DNA 2: TGGTGGCTACGACGGGATT
B6: AUGACCU (DNA:RNA)
RNA: GGGAGACCGGAAUUCAGAUUGUCCAUGACCUUUAAAUCCCGUCGUAGCCACCA
DNA 1: CAATCTGAATTCCGGTCTCCC
DNA 2: TGGTGGCTACGACGGGATT
B7: AGACUCC (DNA:RNA)
RNA: B1 RNA with U25A, U27A, G28C, G30C
DNA 1: CAATCTGAATTCCGGTCTCCC
DNA 2: TGGTGGCTACGACGGGATT
B8: CGACUCU (DNA:RNA)
RNA: B6 RNA with A25C, U26G, G27A, A28C, C29U
DNA 1: CAATCTGAATTCCGGTCTCCC
DNA 2: TGGTGGCTACGACGGGATT
B9: GCUCCCG (DNA:RNA)
RNA: B6 RNA with A25G, U26C, G27U, A28C, U31G
DNA 1: CAATCTGAATTCCGGTCTCCC
DNA 2: TGGTGGCTACGACGGGATT
B10: UUAUAAU (DNA:RNA)
RNA: B6 RNA with A25U, G27A, A28U, C29A, C30A
DNA 1: CAATCTGAATTCCGGTCTCCC
DNA 2: TGGTGGCTACGACGGGATT
B11: UACUGUU (DNA:RNA)
RNA: B6 RNA with A25U, U26A, G27C, A28U, C29G, C30U
DNA 1: CAATCTGAATTCCGGTCTCCC
DNA 2: TGGTGGCTACGACGGGATT
B12: CGUAAAU (DNA:RNA)
RNA: B6 RNA with A25C, U26G, G27U, C29A, C30A
DNA 1: CAATCTGAATTCCGGTCTCCC
DNA 2: TGGTGGCTACGACGGGATT
B13: GUGCGGA (DNA:RNA)
RNA: B6 RNA with A25G, A28C, C29G, C30G, U31A
DNA 1: CAATCTGAATTCCGGTCTCCC
DNA 2: TGGTGGCTACGACGGGATT
B14: AAUAGAU (DNA:RNA)
RNA: B6 RNA with U26A, G27U, C29G, C30A
DNA 1: CAATCTGAATTCCGGTCTCCC
DNA 2: TGGTGGCTACGACGGGATT
B15: UUCCUCC (DNA:RNA)
RNA: B1 RNA with G26U, U27C, G28C, G30C
DNA 1: CAATCTGAATTCCGGTCTCCC
DNA 2: TGGTGGCTACGACGGGATT
B16: AAGUCCU (DNA:RNA)
RNA: B6 RNA with U26A, A28U
DNA 1: CAATCTGAATTCCGGTCTCCC
DNA 2: TGGTGGCTACGACGGGATT
B17: GGCAAGC (DNA:RNA)
RNA: B1 RNA with U25G, U27C, G28A, U29A
DNA 1: CAATCTGAATTCCGGTCTCCC
DNA 2: TGGTGGCTACGACGGGATT
B18: UGCUCUG (DNA:RNA)
RNA: B1 RNA with U27C, G28U, U29C, G30U, C31G
DNA 1: CAATCTGAATTCCGGTCTCCC
DNA 2: TGGTGGCTACGACGGGATT
B19: UCCUCAG (DNA:RNA)
RNA: B6 RNA with A25U, U26C, G27C, A28U, C30A, U31G
DNA 1: CAATCTGAATTCCGGTCTCCC
DNA 2: TGGTGGCTACGACGGGATT
B20: GCCAUCU (DNA:RNA)
RNA: B6 RNA with A25G, U26C, G27C, C29U
DNA 1: CAATCTGAATTCCGGTCTCCC
DNA 2: TGGTGGCTACGACGGGATT
B21: CCGAGCC (DNA:RNA)
RNA: B6 RNA with A25C, U26C, C29G, U31C
DNA 1: CAATCTGAATTCCGGTCTCCC
DNA 2: TGGTGGCTACGACGGGATT
B22: CGCGCCU (DNA:RNA)
RNA: B6 RNA with A25C, U26G, G27C, A28G
DNA 1: CAATCTGAATTCCGGTCTCCC
DNA 2: TGGTGGCTACGACGGGATT
B23: AAGCACC (DNA:RNA)
RNA: B6 RNA with U26A, A28C, C29A, U31C
DNA 1: CAATCTGAATTCCGGTCTCCC
DNA 2: TGGTGGCTACGACGGGATT
B24: GAUCGUU (DNA:RNA)
RNA: B6 RNA with A25G, U26A, G27U, A28C, C29G, C30U
DNA 1: CAATCTGAATTCCGGTCTCCC
DNA 2: TGGTGGCTACGACGGGATT
B25: UCUCCGG (DNA:RNA)
RNA: B1 RNA with G26C, G28C, U29C, C31G
DNA 1: CAATCTGAATTCCGGTCTCCC
DNA 2: TGGTGGCTACGACGGGATT
B26: CUGAGAG (DNA:RNA)
RNA: B6 RNA with A25C, C29G, C30A, U31G
DNA 1: CAATCTGAATTCCGGTCTCCC
DNA 2: TGGTGGCTACGACGGGATT
B27: UUUCCUU (DNA:RNA)
RNA: B6 RNA with A25U, G27U, A28C, C30U
DNA 1: CAATCTGAATTCCGGTCTCCC
DNA 2: TGGTGGCTACGACGGGATT
B28: GCCCAUG (DNA:RNA)
RNA: GGGAGACCGGAAUUCAGAUUGUCCGCCCAUGUUAAAUCCCGUCGUAGCCACCA
DNA 1: CAATCTGAATTCCGGTCTCCC
DNA 2: TGGTGGCTACGACGGGATT
B29: CUCUGCC (DNA:RNA)
RNA: B6 RNA with A25C, G27C, A28U, C29G, U31C
DNA 1: CAATCTGAATTCCGGTCTCCC
DNA 2: TGGTGGCTACGACGGGATT
B30: CCCUGUG (DNA:RNA)
RNA: B28 RNA with G25C, C28U, A29G
DNA 1: CAATCTGAATTCCGGTCTCCC
DNA 2: TGGTGGCTACGACGGGATT
B31: GCGUAGG (DNA:RNA)
RNA: B28 RNA with C27G, C28U, U30G
DNA 1: CAATCTGAATTCCGGTCTCCC
DNA 2: TGGTGGCTACGACGGGATT

The test addresses T1, RBFOX1 RRM RbFoxmut (Fox-RRM*). The test can be described thus: EMSA; HiTS-Eq, 1 nM pool, 10 min; buffer printed only for the single-RNA assays: 10 mM Tris pH 7.5, 150 mM NaCl, 3.4 mM EDTA, 0.001% NP-40, 30 C. The note with it: tags: His6 N-terminal (pET28a); label: 5' 32P. Put shortly:
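Purified RbFox RRM (wild type or mutant) was equilibrated for 10 min in 50 µL with 1 nM of a 5′-radiolabelled pool of RNA with 7 randomized nucleotides, its flanks annealed to DNA oligonucleotides, across increasing protein concentrations. Free RNA was separated by 8% native PAGE, excised, reverse-transcribed, PCR-barcoded and sequenced on an Illumina HiSeq 2500. Relative association constants came from read-count changes of each variant against the control reaction, normalised to the cognate motif.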
As to B1, the binding signal was 0.241 KA relative to UGCAUGU.
Consider B2, for which the binding signal was 0.0784 KA relative to UGCAUGU.
On to B3, for which the binding signal was 0.149 KA relative to UGCAUGU.
As to B4, the binding signal is 0.0533 KA relative to UGCAUGU.
Take B5: the binding signal is 0.102 KA relative to UGCAUGU.
As for B6, the figure is 0.074 KA relative to UGCAUGU; as for B7, 0.036 KA relative to UGCAUGU.
Under B8 stands 0.0595 KA relative to UGCAUGU; under B9, 0.0959 KA relative to UGCAUGU.
As to B10, the binding signal is 0.0698 KA relative to UGCAUGU.
Regarding B11, the binding signal was 0.0836 KA relative to UGCAUGU.
For B12, the binding signal is 0.0806 KA relative to UGCAUGU.
As for B13, the figure is 0.111 KA relative to UGCAUGU.
As for B14, the figure is 0.0813 KA relative to UGCAUGU.
Consider B15, for which the binding signal is 0.0527 KA relative to UGCAUGU.
As to B16, the binding signal is 0.0777 KA relative to UGCAUGU.
As for B17, the figure is 0.0546 KA relative to UGCAUGU.
Take B18: the binding signal was 0.107 KA relative to UGCAUGU.
As for B19, the figure is 0.107 KA relative to UGCAUGU; as for B20, 0.0632 KA relative to UGCAUGU; as for B21, 0.105 KA relative to UGCAUGU.
As for B22, the binding signal is 0.0872 KA relative to UGCAUGU.
B23: the binding signal was 0.0612 KA relative to UGCAUGU.
For the molecule B24, the binding signal was 0.0918 KA relative to UGCAUGU.
B25: the binding signal is 0.0632 KA relative to UGCAUGU.
On to B26, for which the binding signal is 0.0844 KA relative to UGCAUGU.
Under B27 stands 0.0655 KA relative to UGCAUGU; under B28, 0.107 KA relative to UGCAUGU.
As for B29, the figure is 0.348 KA relative to UGCAUGU; as for B30, 0.138 KA relative to UGCAUGU; as for B31, 0.102 KA relative to UGCAUGU.
